# Assay results reported in PubChem BioAssay (Tox21).
# Where “and” joins values, the source holds several entries; their conditions need not be identical. Equal values may be shown once. This list was built around the results that the source calls inconclusive (neither active nor inactive); the mix of calls is not that of the screen. For some of these results: A potency beside an inconclusive call is a rough fit, not a confirmed value. Calls of active or inactive are those of the source. Unless noted, calls follow the shape of the dose curve; as a rule, active = well fitted curve in the direction sought with a large enough effect in the repeat runs; inconclusive = weak or mixed curves; inactive = no such curve, though single readings can be large; an effect the other way counts as inactive or inconclusive.
# Assays:
# [1] = target: Estrogen receptor beta (Homo sapiens) (UniProt Q92731); assay: qHTS assay to identify small molecule antagonists of the estrogen receptor beta (ER-beta) signaling pathway (AID 1259378; active = well fitted inhibition curve with a large enough effect in the signal ratio in the repeat runs, not every such curve was filed as active; inconclusive = weak or mixed curves, or effect the other way; inactive = no such curve, though single readings can be large or run the other way; the % refers to the signal ratio; also: potency is read from the fitted curve at half-maximal effect; as to activity, negative = inhibition: % is scaled to controls: 0 for no effect and ±100 for the full control effect); conditions: ER-beta-UAS-bla HEK293T, beta-lactamase FRET ratio, 16 h; activity, negative = inhibition: at 92.4 µM (top of the series) unless noted
# How it was run: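 ER-beta-UAS-bla HEK293T (GripTite) cells in 2% charcoal-stripped FBS medium were preincubated 6 hr at 37C, dosed with compound, then stimulated with 1 nM E2 (final) for 16 hr; beta-lactamase reporter read by B/G FRET fluorescence after 2 hr substrate loading.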
# [2] = qHTS assay to identify small molecule agonists of the androgen receptor (AR) signaling pathway in the presence of an antagonist - cell viability counter screen (AID 1259379); also: nearly all actives have a fitted effect of over 25% in size; also: potency is read from the fitted curve at half-maximal effect
# How it was run: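 Cytotoxicity is assessed by CellTiter-Fluor in MDA-kb2 cells carrying an MMTV-driven luciferase reporter. Cells receive 3.0uM nilutamide plus compounds at 15 concentrations and incubate 16 hr at 37C without CO2 before fluorescence reading.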
# [3] = qHTS assay to identify small molecule agonists of the estrogen receptor beta (ER-beta) signaling pathway - cell viability counter screen (AID 1259380); also: potency is read from the fitted curve at half-maximal effect; nearly all actives have a fitted effect of over 30% in size
# How it was run: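 Cytotoxicity is measured in parallel with the reporter screen: after 16 hr compound exposure at 37C and a 2 hr LiveBLAzer step, CellTiter-Glo is added to the same ER-beta-UAS-bla HEK293T wells and luminescence read after 30 min.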
# [4] = qHTS assay to identify small molecule antagonists of the estrogen receptor beta (ER-beta) signaling pathway - cell viability counter screen (AID 1259382); also: potency is read from the fitted curve at half-maximal effect; nearly all actives have a fitted effect of over 55% in size
# How it was run: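 Cytotoxicity counter screen multiplexed with the beta-lactamase antagonist assay: GripTite HEK293T ER-beta-bla cells were treated 16 hr with test chemicals in the presence of 1nM 17-beta-estradiol, and viability was measured by CellTiter-Glo.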
# [5] = target: Progesterone receptor (Homo sapiens) (UniProt P06401); assay: qHTS assay to identify small molecule agonists of the progesterone receptor (PR) signaling pathway (AID 1346784; calls by dose curve; also: nearly all actives have a fitted effect of over 30% in size; also: potency is read from the fitted curve at half-maximal effect; as to activation: % is scaled to controls: 0 for no effect and ±100 for the full control effect); conditions: PR-UAS-bla HEK293T, beta-lactamase FRET ratio, 16 h; activation: at 92.4 µM (top of the series) unless noted
# How it was run: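 Seed PR-UAS-bla HEK 293T cells (2% charcoal-stripped FBS), incubate 6 hr at 37C; add compounds in DMSO, 16 hr at 37C; add LiveBLAzer B/G substrate, 2 hr RT; read fluorescence intensity.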
# [6] = target: Thyrotropin receptor (Homo sapiens) (UniProt P16473); assay: qHTS assay to identify small molecule antagonists of the thyroid stimulating hormone receptor (TSHR) signaling pathway (AID 1259385; calls by dose curve; also: % is scaled to controls: 0 for no effect and ±100 for the full control effect; nearly all actives have a fitted effect of over 20% in size); conditions: TSHR-HEK293 cAMP HTRF, TSH-stimulated antagonist mode; activity change, negative = inhibition: at 92.4 µM (top of the series) unless noted
# How it was run: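 TSHR-HEK293 cells were plated and held 18 h at 37C/5% CO2, then given compound plus Ro20-1724 and stimulated with TSH at 1.5 ng/mL final. After 30 min at room temperature, cAMP was detected with cAMP-d2/anti-cAMP-cryptate (1 h) by fluorescence.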
# [7] = target: Progesterone receptor (Homo sapiens) (UniProt P06401); assay: qHTS assay to identify small molecule antagonists of the progesterone receptor (PR) signaling pathway (AID 1346795; active = well fitted inhibition curve with a large enough effect in the signal ratio in the repeat runs, not every such curve was filed as active; inconclusive = weak or mixed curves; the % refers to the signal ratio; also: % is scaled to controls: 0 for no effect and ±100 for the full control effect); conditions: PR-UAS-bla HEK293T, beta-lactamase FRET ratio, 16 h; activity change, negative = inhibition: at 92.4 µM (top of the series) unless noted
# How it was run: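 Screening used a GripTite HEK293T line with PR-responsive UAS-beta-lactamase. Cells were challenged with compound in the presence of 1 nM R5020 final for 16 hr at 37C; B/G FRET substrate, 2 hr room temperature, fluorescence.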
# [8] = qHTS assay to identify small molecule antagonists of the progesterone receptor (PR) signaling pathway - cell viability counter screen (AID 1346798); also: potency is read from the fitted curve at half-maximal effect; nearly all actives have a fitted effect of over 50% in size
# How it was run: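 Measures cytotoxicity in parallel with the PR antagonist reporter read: HEK293T PR-UAS-bla cells get compound and R5020 for 16 hr, and remaining viable cells are quantified by CellTiter-Glo luminescence.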
# [9] = qHTS assay to identify small molecule agonists of the progesterone receptor (PR) signaling pathway - cell viability counter screen (AID 1346799; calls by dose curve; also: potency is read from the fitted curve at half-maximal effect; nearly all actives have a fitted effect of over 45% in size)
# How it was run: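 Using the same plates as the PR reporter screen, HEK293T PR-UAS-bla cells received compounds for 16 hr at 37C and were then lysed with CellTiter-Glo; luminescence was read 30 min later at room temperature.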
# [10] = qHTS assay to identify small molecule agonists of the estrogen receptor alpha (ER-alpha) signaling pathway in the presence of an antagonist - cell viability counter screen (AID 1259386);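 also: potency is read from the fitted curve at half-maximal effect; cells exposed to compounds for 22 h at 37 °C before the viability read; nearly all actives have a fitted effect of over 30% in size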
# How it was run: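 Cytotoxicity was measured in parallel with the ERE-luciferase agonist screen, in the same wells. The cells were VM7Luc4E2, which endogenously express ER-alpha, and treatment was with compounds plus 10.0nM ICI-182,780 for 22hr.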
# Tags tell the direction and shape of the fitted curve or compound fluorescence and quenching.
# Sequence of UniProt P06401 (P06401 whole entry, looked up): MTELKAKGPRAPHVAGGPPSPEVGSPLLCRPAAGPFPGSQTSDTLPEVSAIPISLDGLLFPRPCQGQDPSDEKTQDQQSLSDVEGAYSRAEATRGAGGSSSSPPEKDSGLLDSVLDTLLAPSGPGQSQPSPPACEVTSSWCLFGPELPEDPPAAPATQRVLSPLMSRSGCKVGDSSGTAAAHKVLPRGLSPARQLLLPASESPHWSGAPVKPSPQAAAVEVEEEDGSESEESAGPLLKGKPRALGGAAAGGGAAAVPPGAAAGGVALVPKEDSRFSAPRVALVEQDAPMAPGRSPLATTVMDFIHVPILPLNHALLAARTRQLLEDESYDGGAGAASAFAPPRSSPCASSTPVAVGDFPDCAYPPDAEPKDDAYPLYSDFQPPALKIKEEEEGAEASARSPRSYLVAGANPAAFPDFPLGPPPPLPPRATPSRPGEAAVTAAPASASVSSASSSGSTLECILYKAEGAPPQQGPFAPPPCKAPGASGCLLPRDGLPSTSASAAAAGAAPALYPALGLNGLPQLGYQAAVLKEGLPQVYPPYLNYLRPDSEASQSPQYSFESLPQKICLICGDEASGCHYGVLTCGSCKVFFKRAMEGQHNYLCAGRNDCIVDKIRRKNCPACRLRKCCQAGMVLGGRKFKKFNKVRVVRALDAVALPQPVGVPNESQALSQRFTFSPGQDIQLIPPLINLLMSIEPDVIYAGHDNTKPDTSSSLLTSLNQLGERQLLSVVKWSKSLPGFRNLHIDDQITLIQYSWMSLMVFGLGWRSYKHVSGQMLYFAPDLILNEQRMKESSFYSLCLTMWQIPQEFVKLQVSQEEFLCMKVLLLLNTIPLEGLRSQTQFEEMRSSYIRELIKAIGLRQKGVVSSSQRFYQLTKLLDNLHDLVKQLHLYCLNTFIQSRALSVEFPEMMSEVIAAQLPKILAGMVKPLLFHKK
# Sequence of UniProt Q92731 (Q92731 whole entry, looked up): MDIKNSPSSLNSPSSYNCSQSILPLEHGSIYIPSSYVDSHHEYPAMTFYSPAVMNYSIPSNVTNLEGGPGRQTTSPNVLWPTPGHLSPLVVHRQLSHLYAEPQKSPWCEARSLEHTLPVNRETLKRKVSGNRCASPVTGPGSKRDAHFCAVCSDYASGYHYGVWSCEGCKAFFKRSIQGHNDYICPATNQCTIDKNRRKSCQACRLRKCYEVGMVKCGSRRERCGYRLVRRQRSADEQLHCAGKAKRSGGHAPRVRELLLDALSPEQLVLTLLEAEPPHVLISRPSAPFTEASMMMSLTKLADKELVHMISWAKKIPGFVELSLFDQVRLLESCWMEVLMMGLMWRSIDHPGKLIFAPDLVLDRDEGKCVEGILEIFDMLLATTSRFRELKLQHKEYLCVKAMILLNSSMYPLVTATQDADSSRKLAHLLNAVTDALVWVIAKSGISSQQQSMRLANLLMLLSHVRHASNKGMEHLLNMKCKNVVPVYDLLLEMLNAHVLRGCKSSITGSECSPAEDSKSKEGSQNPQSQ
# Sequence of UniProt P16473 (P16473 whole entry, looked up): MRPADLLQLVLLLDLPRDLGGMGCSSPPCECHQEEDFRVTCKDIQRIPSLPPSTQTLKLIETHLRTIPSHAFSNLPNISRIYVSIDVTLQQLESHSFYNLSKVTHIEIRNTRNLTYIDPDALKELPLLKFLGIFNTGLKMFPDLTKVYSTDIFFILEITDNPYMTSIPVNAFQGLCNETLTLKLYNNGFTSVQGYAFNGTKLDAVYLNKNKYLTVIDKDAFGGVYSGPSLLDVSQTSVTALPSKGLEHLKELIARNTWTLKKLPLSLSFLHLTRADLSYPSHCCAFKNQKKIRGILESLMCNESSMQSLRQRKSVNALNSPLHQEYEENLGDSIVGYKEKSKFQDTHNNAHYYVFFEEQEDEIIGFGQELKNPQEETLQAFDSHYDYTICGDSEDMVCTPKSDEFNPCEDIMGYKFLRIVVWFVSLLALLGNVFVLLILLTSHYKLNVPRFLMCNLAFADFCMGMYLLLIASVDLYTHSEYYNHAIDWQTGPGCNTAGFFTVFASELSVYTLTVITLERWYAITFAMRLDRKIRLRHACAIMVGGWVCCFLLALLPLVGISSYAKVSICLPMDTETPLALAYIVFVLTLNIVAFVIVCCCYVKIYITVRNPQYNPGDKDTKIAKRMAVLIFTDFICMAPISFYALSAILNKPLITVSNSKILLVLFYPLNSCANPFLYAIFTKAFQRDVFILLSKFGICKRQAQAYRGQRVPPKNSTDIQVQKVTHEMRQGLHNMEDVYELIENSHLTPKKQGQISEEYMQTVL
smiles,measurement,setting,value
COc1cc(NC(=O)CC(C)=O)c(OC)cc1Cl,Potency,[1],inactive and inconclusive: 61.1 µM
same,Potency,[2],inactive
same,Potency,[3],"inconclusive: 68.6 µM [cytotoxic, partial curve]"
same,Potency,[4],"inconclusive: 68.6 µM [cytotoxic, partial curve, poor fit]"
same,Potency,[5],inactive
CCN(Cc1ccccc1)c1ccccc1,"activity, negative = inhibition",[1],inconclusive: -1.32%
same,Potency,[2],"inconclusive: 53.8 µM [cytotoxic, partial curve, poor fit]"
same,Potency,[3],"inconclusive: 48 µM [cytotoxic, partial curve]"
same,"activity change, negative = inhibition",[6],inconclusive: -15.1%
same,Potency,[5],"inconclusive: 53.8 µM [activator, partial curve]"
same,Potency,[7],inactive
same,Potency,[8],"inconclusive: 60.4 µM [cytotoxic, single point]"
same,Potency,[9],active: 67.8 µM
Cn1c(NCCN(CCO)CCCc2ccc([N+](=O)[O-])cc2)cc(=O)n(C)c1=O,Potency,[1],inactive
O=C=NC1CCC(CC2CCC(N=C=O)CC2)CC1 (stereo not drawn),Potency,[1],inactive
same,Potency,[2],active: 30.6 µM
same,Potency,[3],active: 68.6 µM
same,Potency,[4],"inconclusive: 61.1 µM [cytotoxic, single point]"
same,Potency,[10],inconclusive: 21.7 µM [cytotoxic]
same,Potency,[8],"inconclusive: 24.3 µM [cytotoxic, partial curve]"
same,Potency,[9],active: 8.63 µM
CCOC(=O)CC(=O)C(=O)OCC,Potency,[1],active: 48.6 µM
same,Potency,[2],"inconclusive: 68.6 µM [cytotoxic, single point]"
same,Potency,[10],"inconclusive: 68.6 µM [cytotoxic, single point]"
same,activation,[5],inconclusive: 24.9%
same,"activity change, negative = inhibition",[7],inconclusive: -28.3%
same,Potency,[8],active: 15.4 µM
same,Potency,[9],"inconclusive: 48.6 µM [rising, partial curve, poor fit]"
